# Article PMC7819943, “Rice protein-binding microarrays: a tool to detect cis-acting elements near promoter regions in rice”
# This is one part of the list.
# Molecular target: T1, OsWOX13 (Oryza sativa, UniProt Q5QMM3 1-267)
# T1 sequence: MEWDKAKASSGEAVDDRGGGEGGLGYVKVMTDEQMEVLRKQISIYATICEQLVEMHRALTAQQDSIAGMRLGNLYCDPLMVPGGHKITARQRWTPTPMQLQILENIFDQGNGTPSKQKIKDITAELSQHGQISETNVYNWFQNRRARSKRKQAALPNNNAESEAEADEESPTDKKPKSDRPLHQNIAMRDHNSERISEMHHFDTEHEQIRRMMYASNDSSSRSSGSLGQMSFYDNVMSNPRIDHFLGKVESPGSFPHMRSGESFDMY
# Assay: protein-binding microarray (RPBM); PBS, 2% BSA, 51.3 ng/ul salmon testes DNA, 50 uM zinc acetate, 200 nM TF, 25 C, 1 h; high values mean tight binding
# Conditions: protein: recombinant; tags: N-terminal polyhistidine and DsRed monomer fusion (pET32a); label: CyDye5-dUTP incorporated in the synthesized complementary strand; 3' TTTTT single-stranded linker to array surface; dsDNA, one strand shown
# Summary of the method: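 Transcription factors were made in E. coli BL21-CodonPlus as N-terminal fusions to a polyhistidine tag and DsRed, then purified on Ni–NTA. After primer extension with Cy5-dUTP and blocking with 2% BSA, a custom Agilent array was exposed for 1 h at 25 °C to 200 nM protein in PBS, 2% BSA, salmon testes DNA and 50 µM zinc acetate. Washed arrays were scanned on an Axon 4000B, and the binding signal is per-feature fluorescence intensity in arbitrary units.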
row,Sequence,binding signal
1,AGCGCAATTCAATTAATTAACTCAAAATCTAATGAGCACTCGGAGTCACCTAGTGCAG,20500 fluorescence intensity (a.u.)
2,CCTGATTGCGTGTTGATTTGACAATATGGTGCTACAGTAACGGAGTCACCTAGTGCAG,54300 fluorescence intensity (a.u.)
3,ACCCGGATGATTGTTTTGGCTTCTGGATTTATCAAATGAACGGAGTCACCTAGTGCAG,12000 fluorescence intensity (a.u.)
4,CCATGCGGCCTAATTTGTGTCCTCTGATTTCGTAGCAAACCGGAGTCACCTAGTGCAG,5760 fluorescence intensity (a.u.)
5,CAAGACCAGTCACACATGCTTAATTTGGGTGCACCGTGCACGGAGTCACCTAGTGCAG,4990 fluorescence intensity (a.u.)
6,ATCATACAATTTTCCAATTAATGGGAAGATGCGATATTTTCGGAGTCACCTAGTGCAG,13100 fluorescence intensity (a.u.)
7,ATGCTGACTGGGCGAATGACGTGTCCGTTTTCGACAGATCCGGAGTCACCTAGTGCAG,3990 fluorescence intensity (a.u.)
8,CCCATTATAATTTTCTTTTGTTTCGGGTAGCGGCAGGAGGCGGAGTCACCTAGTGCAG,4690 fluorescence intensity (a.u.)
9,CAGTTTTCCTTTCAATAATTGAAGGTTCCTTGGTTTTCATCGGAGTCACCTAGTGCAG,18600 fluorescence intensity (a.u.)
10,TACTCCAGTAACATTTAATGAAATTAACGACGTTTCCTTGCGGAGTCACCTAGTGCAG,3180 fluorescence intensity (a.u.)
11,ACCTCCTCAATCACACGCACATGTAATAGCTAGTCTAGTGCGGAGTCACCTAGTGCAG,14900 fluorescence intensity (a.u.)
12,ATTCTAATCAACATCAGCTAGGTAAAATTAAACTTGCCAACGGAGTCACCTAGTGCAG,9890 fluorescence intensity (a.u.)
13,TTTAATAGGAGTATGTGATAGATCGCTCCATAAACATGCACGGAGTCACCTAGTGCAG,8780 fluorescence intensity (a.u.)
14,TCCCTGTCCTGACACAGCCTAATTAGGAGATCAAGCTCATCGGAGTCACCTAGTGCAG,9300 fluorescence intensity (a.u.)
15,CCTAATGAGCAATTGTATGTGCAGTGCAAGGAGCTGAGAACGGAGTCACCTAGTGCAG,6730 fluorescence intensity (a.u.)
16,TATATGCTATCATTTAATTAAGATTGAATAGTTAGTTTGGCGGAGTCACCTAGTGCAG,8120 fluorescence intensity (a.u.)
17,AACGTAATTTGGCTCTCGCGTTCCTAACATGCTCTCTCGACGGAGTCACCTAGTGCAG,6700 fluorescence intensity (a.u.)
18,TATACTGATTATACTGCTAGCTTATCTAGGAGATGCATAGCGGAGTCACCTAGTGCAG,17500 fluorescence intensity (a.u.)
19,TCCCATCTTGATTATTCATATCCCACTACATGTTTCATAGCGGAGTCACCTAGTGCAG,7720 fluorescence intensity (a.u.)
20,TAATTGCACACTGATTACACTGTAACCAACCAACCAACGACGGAGTCACCTAGTGCAG,4600 fluorescence intensity (a.u.)
21,TAAATTATTATTATAATAAATAAACGAGGGCCCTCAATGTCGGAGTCACCTAGTGCAG,7400 fluorescence intensity (a.u.)
22,CGATAACGGCCTCGTCAATTGCATTACGCGAGCCACGAGGCGGAGTCACCTAGTGCAG,4900 fluorescence intensity (a.u.)
23,ATGATTTTGTTTTGTTTTGCGAATAATTTTGGCGCCTCAACGGAGTCACCTAGTGCAG,6150 fluorescence intensity (a.u.)
24,TTTCGATTGGATCGGGACAGCAAAGGTTTGGGGATTTGGTCGGAGTCACCTAGTGCAG,6350 fluorescence intensity (a.u.)
25,GTCTCCCCAATTAATTCCTCTGAACAACTTCCTCGTAGTTCGGAGTCACCTAGTGCAG,6390 fluorescence intensity (a.u.)
26,GTACAAAATTTAAAATTATGTTATCATTTTAATATATTTTCGGAGTCACCTAGTGCAG,4960 fluorescence intensity (a.u.)
27,ATGATTGCCATTTGACCTGTAGTACAGATTTAGCACTTGCCGGAGTCACCTAGTGCAG,47100 fluorescence intensity (a.u.)

row,Sequence,binding signal
1,TACTGTAATAAATCAACAAATAATAATAGTACTAGTAGCACGGAGTCACCTAGTGCAG,3390 fluorescence intensity (a.u.)
2,AAAATTATCAATAACGGTATTAAAATCAATAGTGTTCAAGCGGAGTCACCTAGTGCAG,7880 fluorescence intensity (a.u.)
3,TTCACACAAGATTGGCTACATGGGCATCGAGAAATGTAAACGGAGTCACCTAGTGCAG,3360 fluorescence intensity (a.u.)
4,TCTGACTATTTCCGATCATTTTCATCACTAATCTCACACACGGAGTCACCTAGTGCAG,4650 fluorescence intensity (a.u.)
5,TAAGCATAATTGCTCCATGATTTGGCAATGTGATGCTACACGGAGTCACCTAGTGCAG,25200 fluorescence intensity (a.u.)
6,ATCTAAATTATGAGAAATTGTAGTTGTAAAATCCAGAAAACGGAGTCACCTAGTGCAG,5730 fluorescence intensity (a.u.)
7,CAGCTCATCAAGGTCAAATCAAATCATTCACGTCGTAACGCGGAGTCACCTAGTGCAG,5060 fluorescence intensity (a.u.)
8,AGGGGATACTTTGTTTTGATTGGATTTGGAACTCGATGACCGGAGTCACCTAGTGCAG,9790 fluorescence intensity (a.u.)
9,AGACGCGTTTATTTAGTTTAATTAAGGCAAATTATGGATACGGAGTCACCTAGTGCAG,5770 fluorescence intensity (a.u.)
10,CTTGTTATTGAATAATGGATTAACTAACTAATAACTAACGCGGAGTCACCTAGTGCAG,12800 fluorescence intensity (a.u.)
11,TATGTACTGATGATTTGGTGATTGATTTCATATCAGCTTTCGGAGTCACCTAGTGCAG,41700 fluorescence intensity (a.u.)
12,TGTAAACTTAATCACAAACTCCTGGGTTAAGCTCGATCGACGGAGTCACCTAGTGCAG,3870 fluorescence intensity (a.u.)
13,TGGTGTAATTGAATTATAGATCGGATAAGTAATTTAAGAGCGGAGTCACCTAGTGCAG,25700 fluorescence intensity (a.u.)
14,GACGGATTAATTAGGCTTAATAAATTCGTCTCGCGGTGTACGGAGTCACCTAGTGCAG,24600 fluorescence intensity (a.u.)
15,ATAAAGTGATTTAATTTTAGTTAAAGTTAAACTACTTTAACGGAGTCACCTAGTGCAG,21100 fluorescence intensity (a.u.)
16,AATCAGGATTAGTCTCATTTAATTGGGATATTACACGGTTCGGAGTCACCTAGTGCAG,7380 fluorescence intensity (a.u.)
17,GCGTAATTAGACTCAAAAGATTCGTCTCGCGATTTACATGCGGAGTCACCTAGTGCAG,36500 fluorescence intensity (a.u.)
18,AATATAATGAAATTTCACAGAGGAGGGACTGGGCTTTATACGGAGTCACCTAGTGCAG,3240 fluorescence intensity (a.u.)
19,ACAGATTTGTCACGTCCAAAATTAATGCGTACACTCTGCGCGGAGTCACCTAGTGCAG,7380 fluorescence intensity (a.u.)
20,TCTTGTCACTGAAAATTATTGACTGCTTCCCTTCTTTGTTCGGAGTCACCTAGTGCAG,3970 fluorescence intensity (a.u.)
21,GTGATTTGTCAGCTGTTAGTTGTCACACCTACTCATCAGCCGGAGTCACCTAGTGCAG,4350 fluorescence intensity (a.u.)
22,ATTAAGATGATAAGTTGTTAGATTGAAATATGCCTATCAACGGAGTCACCTAGTGCAG,3650 fluorescence intensity (a.u.)
23,CTATTTTAATTGACGTTTTGGACAATGACACGGTCTACAACGGAGTCACCTAGTGCAG,20300 fluorescence intensity (a.u.)
24,GCTGTTTGATCCATAATTTATCCGCGCGTCGTCACTCCGACGGAGTCACCTAGTGCAG,5840 fluorescence intensity (a.u.)
25,GTACTTAATTAACCTGACCTGCGTTCACTTGGGTTAAAGTCGGAGTCACCTAGTGCAG,19700 fluorescence intensity (a.u.)
26,TATCATTTAAAGTTAACTGATTGCAAGAAGCCTTAATTCTCGGAGTCACCTAGTGCAG,7520 fluorescence intensity (a.u.)
27,CGGACGTAACTAATTAATTACTACAAGCATTCCAGCAAATCGGAGTCACCTAGTGCAG,23000 fluorescence intensity (a.u.)
